# Data reported in the antibiotic and cytotoxicity screens of Wong et al. (2023).
# The list shows a part of the results.
# Key:
# HSkMC = human skeletal muscle cells; assay: cytotoxicity call (relative viability < 0.9); settings: 10 µM
# HepG2 = assay: cytotoxicity call (relative viability < 0.9); settings: 10 µM
# S. aureus RN4220 = assay: growth inhibition call (relative growth <= 0.2); settings: 50 µM
Compound,cytotoxicity call (HSkMC),cytotoxicity call (HepG2),growth inhibition call (S. aureus RN4220)
CN(C)CCN1[C@]2(CCN(C(=O)N3CCOCC3)C2)c2ccccc2S1(=O)=O,inactive,inactive,inactive
C[C@H]1CN([C@@H](C)CO)C(=O)CCCn2cc(nn2)CO[C@H]1CN(C)C(=O)C1CC1,inactive,inactive,inactive
C[C@H]1CN([C@@H](C)CO)C(=O)c2cc(NC(=O)Nc3cccc4ccccc34)ccc2O[C@@H]1CN(C)Cc1ccc(Oc2ccccc2)cc1,inactive,active,inactive
COc1cccc(C#Cc2ccc3c(c2)O[C@@H](CN(C)C(C)=O)[C@@H](C)CN([C@H](C)CO)S3(=O)=O)c1,inactive,inactive,inactive
C/C=C(/C)C(=O)O[C@@H]1[C@H](OC(C)=O)[C@]2(CO)[C@H](O)C[C@]3(C)C(=CC[C@H]4[C@@]5(C)CC[C@H](O[C@@H]6O[C@H](C(=O)O)[C@@H](O[C@@H]7O[C@H](CO)[C@@H](O)[C@H](O)[C@H]7O)[C@H](O)[C@H]6O[C@@H]6O[C@H](CO)[C@@H](O)[C@H](O)[C@H]6O)[C@](C)(CO)[C@@H]5CC[C@]43C)[C@@H]2CC1(C)C,inactive,inactive,inactive
C[C@@H]1CCCCO[C@@H](CN(C)Cc2ccc(C(=O)Nc3ccccc3N)cc2)[C@@H](C)CN([C@H](C)CO)C(=O)c2cc(NS(=O)(=O)c3ccc(F)cc3)ccc2O1,inactive,inactive,inactive
C[C@H]1CN([C@@H](C)CO)C(=O)Cc2cc(NC(=O)CCN3CCOCC3)ccc2O[C@@H]1CN(C)C(=O)Nc1ccc2c(c1)OCO2,inactive,inactive,inactive
COc1cccc(S(=O)(=O)Nc2ccc3c(c2)[C@@H]2C[C@H](CC(=O)N4CCCCC4)O[C@@H](CO)[C@@H]2O3)c1,inactive,inactive,inactive
C[C@H](CO)N1C[C@H](C)[C@H](CN(C)Cc2ccc(Oc3ccccc3)cc2)Oc2ccc(NS(=O)(=O)c3cccs3)cc2CC1=O,inactive,inactive,inactive
CC(C)NC(=O)N(C)C[C@H]1Oc2ccc(NC(=O)CCN3CCOCC3)cc2C(=O)N([C@@H](C)CO)C[C@H]1C,inactive,inactive,inactive
C[C@@H]1CN([C@@H](C)CO)S(=O)(=O)c2ccc(Br)cc2O[C@H]1CN(C)C(=O)c1cccc(F)c1,inactive,inactive,inactive
CCS(=O)(=O)N1C[C@]2(C1)CN([C@H](CO)c1c2c2ccc(cc2n1C)OC)C(=O)Nc1cccc(c1)F,inactive,inactive,inactive
CCS(=O)(=O)N1C[C@]2(CN(C2)C(=O)Nc2ccc(cc2F)F)c2c(n(c3cc(ccc23)OC)C)[C@@H]1CO,inactive,inactive,inactive
Cc1noc(C)c1NC(=O)Nc1ccc2c(c1)C(=O)N([C@H](C)CO)C[C@H](C)[C@@H](CN(C)Cc1ccc(C(F)(F)F)cc1)OCCCC[C@@H](C)O2,inactive,inactive,inactive
CC(C)[C@@H](CO)N1C(=O)[C@]2(C)[C@H]3C(=O)OCCC/C=C\[C@H]3O[C@]23C=CCN(c2ccc(Cl)cc2)C(=O)[C@@H]13,inactive,inactive,inactive
C[C@H]1CCCCO[C@@H](CN(C)C(=O)Nc2ccc(F)cc2)[C@@H](C)CN([C@@H](C)CO)C(=O)c2cc(NC(=O)Nc3ccccc3)ccc2O1,inactive,inactive,inactive
C[C@H]1CN([C@@H](C)CO)C(=O)c2cccc(NC(=O)C3CC3)c2O[C@H]1CN(C)Cc1ccc(Oc2ccccc2)cc1,inactive,inactive,inactive
C[C@H]1CN([C@@H](C)CO)C(=O)Cc2cc(NC(=O)Nc3ccc4c(c3)OCO4)ccc2O[C@H]1CN(C)Cc1ccc(Oc2ccccc2)cc1,inactive,inactive,inactive
C[C@@H]1CN([C@H](C)CO)C(=O)c2cc(NC(=O)c3ccccc3)ccc2O[C@@H](C)CCCCO[C@@H]1CN(C)Cc1ccncc1,inactive,inactive,inactive
COC(=O)[C@H]1CCc2nc[nH]c2C1,inactive,inactive,inactive
COc1ccccc1S(=O)(=O)N[C@@H]1CC[C@@H](CCNC(=O)C2CCOCC2)O[C@H]1CO,inactive,inactive,inactive

Compound,cytotoxicity call (HSkMC),cytotoxicity call (HepG2),growth inhibition call (S. aureus RN4220)
CC(C)NCC(O)COc1cccc2[nH]ccc12 (stereo not drawn),inactive,inactive,inactive
CN(C)CCCNC(=O)C[C@@H]1CC[C@@H]2[C@H](COc3ccc(NS(C)(=O)=O)cc3C(=O)N2C)O1,inactive,inactive,inactive
Cc1ccc(S(=O)(=O)Nc2ccc3c(c2)C(=O)N([C@H](C)CO)C[C@@H](C)[C@H](CN(C)Cc2ccc(C(F)(F)F)cc2)O3)cc1,active,active,inactive
Cc1ccc(S(=O)(=O)Nc2ccc3c(c2)C(=O)N([C@@H](C)CO)C[C@H](C)[C@@H](CN(C)C(=O)Cc2ccccc2)OCCCC[C@@H](C)O3)cc1,inactive,active,inactive
COc1ccc(S(=O)(=O)Nc2cccc3c2O[C@@H](CN(C)Cc2ccc(Cl)c(Cl)c2)[C@@H](C)CN([C@H](C)CO)C3=O)cc1,inactive,inactive,inactive
Cc1noc(C)c1NC(=O)Nc1ccc2c(c1)C(=O)N([C@H](C)CO)C[C@@H](C)[C@@H](CN(C)C(=O)NC1CCCCC1)OCCCC[C@@H](C)O2,inactive,inactive,inactive
CC(C)NC(=O)Nc1ccc2c(c1)CC(=O)N([C@H](C)CO)C[C@H](C)[C@@H](CN(C)Cc1ccc(Oc3ccccc3)cc1)O2,inactive,inactive,inactive
CCC(=O)N(C)C[C@@H]1Oc2ncc(C#C[C@H](C)O)cc2C(=O)N([C@H](C)CO)C[C@H]1C,inactive,inactive,inactive
C[C@H](CO)N1C[C@H](C)[C@H](CN(C)Cc2ccc(Cl)c(Cl)c2)Oc2ccc(NC(=O)C3CCCCC3)cc2CC1=O,inactive,inactive,inactive
Cc1noc(C)c1NC(=O)Nc1cccc2c1O[C@H](CN(C)Cc1ccc(Oc3ccccc3)cc1)[C@@H](C)CN([C@@H](C)CO)C2=O,inactive,inactive,inactive
c1csc(CNc2ccc(NCc3cccs3)cc2)c1,inactive,inactive,inactive
C[C@H]1CN([C@@H](C)CO)C(=O)c2cccc(NS(=O)(=O)c3ccc(F)cc3)c2O[C@H]1CN(C)Cc1ccc(Oc2ccccc2)cc1,inactive,inactive,inactive
C[C@@H]1CN([C@H](C)CO)C(=O)Cc2cc(NC(=O)Cc3cn(C)c4ccccc34)ccc2O[C@H]1CN(C)C(=O)Nc1ccc(C(F)(F)F)cc1,inactive,inactive,inactive
Nc1ncnc2c1ncn2[C@H]1O[C@@H](CO)[C@H](O)[C@@H]1S,inactive,inactive,inactive
COc1ccc(CN2C[C@H](C)[C@@H](OC)CN(C)C(=O)c3cc(NC(=O)c4nc5ccccc5s4)ccc3OC[C@H]2C)cc1,inactive,inactive,inactive
COc1ccc(NC(=O)Nc2ccc3c(c2)C(=O)N([C@H](C)CO)C[C@@H](C)[C@@H](CN(C)Cc2ccncc2)OCCCC[C@@H](C)O3)cc1,inactive,inactive,inactive
C[C@]12C(=O)N(CCC(=O)O)C(=O)[C@H]1[C@@H]1C=C[C@@H]2C1,inactive,inactive,inactive
C[C@H]1CN([C@@H](C)CO)C(=O)c2ccccc2-c2ccccc2CO[C@@H]1CN(C)Cc1cccc(C(F)(F)F)c1,inactive,inactive,inactive
C[C@H]1CCc2c(C(=O)O)csc2C1,inactive,inactive,inactive
C[C@@H](NC(=O)C[C@@H]1CC[C@H](NC(=O)CN2CCOCC2)[C@@H](CO)O1)c1ccccc1,inactive,inactive,inactive
